Some of the results follow.

This is an account of results in publication PMC12820563, “FoxP3 forms a head-to-head dimer in vivo and stabilizes its multimerization on adjacent microsatellites”.

This assay concerns the target T1, MBP-FoxP1dN (Mus musculus, UniProt P58462 326-579).
T1 sequence: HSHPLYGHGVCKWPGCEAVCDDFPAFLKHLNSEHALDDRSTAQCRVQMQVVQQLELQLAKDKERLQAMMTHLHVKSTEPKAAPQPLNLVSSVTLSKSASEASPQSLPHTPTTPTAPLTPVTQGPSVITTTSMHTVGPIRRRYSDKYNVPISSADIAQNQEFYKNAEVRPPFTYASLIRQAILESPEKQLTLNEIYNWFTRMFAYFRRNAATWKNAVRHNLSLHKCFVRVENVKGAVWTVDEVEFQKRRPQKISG
The experiment in a line: PD-seq (MBP pull-down with sequencing); 20 mM Tris-HCl pH 7.5, 100 mM NaCl, 1.5 mM MgCl2, 0.4 uM protein, 0.1 uM dsDNA library, 30 min, room temperature, amylose pull-down; high values mean tight binding. To be noted: protein: recombinant; tags: His6-MBP; chain copies: 2; dsDNA, one strand shown. In outline: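 Binding is the reads-per-million enrichment of pull-down relative to input, pooled across replicates. For this, 0.4 µM His6-MBP-tagged mouse FoxP3 or FoxP1 fragment lacking the N-terminus, made in E. coli, was incubated with 0.1 µM Klenow-filled double-stranded degenerate DNA library for 30 min at room temperature in Tris pH 7.5 buffer with NaCl and MgCl2. Complexes bound to amylose resin were washed three times before proteinase K released the DNA for PCR barcoding and Illumina sequencing.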
Consider “GATGATTGTTCTCCCAGCTGATGAATTAGGCGTATCGAGTAAACAAATTTTCCTAATCTTTCTGTTCAAGCGCCATCTAC”, for which the binding signal was 0.998 RPM ratio (pull-down/input).

As to “GATGATTGTTCTCCCAGCTGATGAATTGTCATTCTCGAGTAAACAAATTTTCCTAATCTTTCTGTTCAAGCGCCATCTAC”, the binding signal is 1.11 RPM ratio (pull-down/input).

Take “GATGATTGTTCTCCCAGCTGATGAATTTATACTCTCGAGTAAACAAATTTTCCTAATCTTTCTGTTCAAGCGCCATCTAC”: the binding signal was 1.14 RPM ratio (pull-down/input).

Take “GATGATTGTTCTCCCAGCTGATGAATTCGAGGTGTCGAGTAAACAAATTTTCCTAATCTTTCTGTTCAAGCGCCATCTAC”: the binding signal is 0.85 RPM ratio (pull-down/input).

Regarding “GATGATTGTTCTCCCAGCTGATGAATTTCTCACATCGAGTAAACAAATTTTCCTAATCTTTCTGTTCAAGCGCCATCTAC”, the binding signal is 1.01 RPM ratio (pull-down/input).

“GATGATTGTTCTCCCAGCTGATGAATTCGTATCATCGAGTAAACAAATTTTCCTAATCTTTCTGTTCAAGCGCCATCTAC”: the binding signal is 1.1 RPM ratio (pull-down/input).

Consider “GATGATTGTTCTCCCAGCTGATGAATTTTTTGATTCGAGTAAACAAATTTTCCTAATCTTTCTGTTCAAGCGCCATCTAC”, for which the binding signal was 1.02 RPM ratio (pull-down/input).

With “GATGATTGTTCTCCCAGCTGATGAATTGGAGGTTTCGAGTAAACAAATTTTCCTAATCTTTCTGTTCAAGCGCCATCTAC”, the binding signal is 0.79 RPM ratio (pull-down/input).

In the case of “GATGATTGTTCTCCCAGCTGATGAATTTAATTTATCGAGTAAACAAATTTTCCTAATCTTTCTGTTCAAGCGCCATCTAC”, the binding signal was 1.23 RPM ratio (pull-down/input).

Regarding “GATGATTGTTCTCCCAGCTGATGAATTCGTAATATCGAGTAAACAAATTTTCCTAATCTTTCTGTTCAAGCGCCATCTAC”, the binding signal was 1.1 RPM ratio (pull-down/input).

Turning to “GATGATTGTTCTCCCAGCTGATGAATTACGAATTTCGAGTAAACAAATTTTCCTAATCTTTCTGTTCAAGCGCCATCTAC”, the binding signal was 1.09 RPM ratio (pull-down/input).

On to “GATGATTGTTCTCCCAGCTGATGAATTTAATTGGTCGAGTAAACAAATTTTCCTAATCTTTCTGTTCAAGCGCCATCTAC”, for which the binding signal is 1.03 RPM ratio (pull-down/input).

With “GATGATTGTTCTCCCAGCTGATGAATTCGTCCAGTCGAGTAAACAAATTTTCCTAATCTTTCTGTTCAAGCGCCATCTAC”, the binding signal is 0.801 RPM ratio (pull-down/input).

Turning to “GATGATTGTTCTCCCAGCTGATGAATTTACCGCATCGAGTAAACAAATTTTCCTAATCTTTCTGTTCAAGCGCCATCTAC”, the binding signal was 1.41 RPM ratio (pull-down/input).

Turning to “GATGATTGTTCTCCCAGCTGATGAATTGTGAAGTTCGAGTAAACAAATTTTCCTAATCTTTCTGTTCAAGCGCCATCTAC”, the binding signal was 1.04 RPM ratio (pull-down/input).

For “GATGATTGTTCTCCCAGCTGATGAATTTTTACTCTCGAGTAAACAAATTTTCCTAATCTTTCTGTTCAAGCGCCATCTAC”, the binding signal is 0.794 RPM ratio (pull-down/input).

Consider “GATGATTGTTCTCCCAGCTGATGAATTCGGACTTTCGAGTAAACAAATTTTCCTAATCTTTCTGTTCAAGCGCCATCTAC”, for which the binding signal was 0.904 RPM ratio (pull-down/input).

With “GATGATTGTTCTCCCAGCTGATGAATTTGTTGTCTCGAGTAAACAAATTTTCCTAATCTTTCTGTTCAAGCGCCATCTAC”, the binding signal was 2.42 RPM ratio (pull-down/input).

Regarding “GATGATTGTTCTCCCAGCTGATGAATTGGGGAACTCGAGTAAACAAATTTTCCTAATCTTTCTGTTCAAGCGCCATCTAC”, the binding signal is 0.756 RPM ratio (pull-down/input).

Turning to “GATGATTGTTCTCCCAGCTGATGAATTCGTTTTGTCGAGTAAACAAATTTTCCTAATCTTTCTGTTCAAGCGCCATCTAC”, the binding signal is 0.978 RPM ratio (pull-down/input).

Consider “GATGATTGTTCTCCCAGCTGATGAATTGCGACAATCGAGTAAACAAATTTTCCTAATCTTTCTGTTCAAGCGCCATCTAC”, for which the binding signal is 1.41 RPM ratio (pull-down/input).

Turning to “GATGATTGTTCTCCCAGCTGATGAATTGCACAGCTCGAGTAAACAAATTTTCCTAATCTTTCTGTTCAAGCGCCATCTAC”, the binding signal was 1.04 RPM ratio (pull-down/input).

Turning to “GATGATTGTTCTCCCAGCTGATGAATTTATGTTTTCGAGTAAACAAATTTTCCTAATCTTTCTGTTCAAGCGCCATCTAC”, the binding signal was 2.76 RPM ratio (pull-down/input).

On to “GATGATTGTTCTCCCAGCTGATGAATTCATTCGATCGAGTAAACAAATTTTCCTAATCTTTCTGTTCAAGCGCCATCTAC”, for which the binding signal was 0.894 RPM ratio (pull-down/input).

Take “GATGATTGTTCTCCCAGCTGATGAATTCTGTTTGTCGAGTAAACAAATTTTCCTAATCTTTCTGTTCAAGCGCCATCTAC”: the binding signal was 2.36 RPM ratio (pull-down/input).

For the sequence “GATGATTGTTCTCCCAGCTGATGAATTTCCGCCCTCGAGTAAACAAATTTTCCTAATCTTTCTGTTCAAGCGCCATCTAC”, the binding signal is 0.812 RPM ratio (pull-down/input).

As to “GATGATTGTTCTCCCAGCTGATGAATTGTTAGCTTCGAGTAAACAAATTTTCCTAATCTTTCTGTTCAAGCGCCATCTAC”, the binding signal is 1.18 RPM ratio (pull-down/input).

“GATGATTGTTCTCCCAGCTGATGAATTTTCTATGTCGAGTAAACAAATTTTCCTAATCTTTCTGTTCAAGCGCCATCTAC”: the binding signal was 0.967 RPM ratio (pull-down/input).

Regarding “GATGATTGTTCTCCCAGCTGATGAATTCACCTCGTCGAGTAAACAAATTTTCCTAATCTTTCTGTTCAAGCGCCATCTAC”, the binding signal is 0.754 RPM ratio (pull-down/input).

As for “GATGATTGTTCTCCCAGCTGATGAATTATGCCAGTCGAGTAAACAAATTTTCCTAATCTTTCTGTTCAAGCGCCATCTAC”, the binding signal is 0.982 RPM ratio (pull-down/input).

“GATGATTGTTCTCCCAGCTGATGAATTCCTCACTTCGAGTAAACAAATTTTCCTAATCTTTCTGTTCAAGCGCCATCTAC”: the binding signal is 0.836 RPM ratio (pull-down/input).
